According to the supplement of paper PMC10126150:
Values marked as one replicate rest on one cluster of the flow cell; about a third of the high ones do not repeat.

System: ATP
Assay: switch fluorescence ratio, 500 uM ATP over buffer (Cy3 cluster intensity, sum of 5 cycles each) (fold (ratio)); higher = stronger signal-on switching upon ATP binding; sequences stand for … in TCGTCGGCAGCGTCAGATGTGTATAAGAGACAGTTTTTTTTTTTTTTTTTTTTTTTTT…TC
Details: aptamer strand: ATP DNA aptamer (quencher-CACCTGGGGGAGTATTGCGGAGGAAGG + anchor), 100 nM annealed; ATP concentration: 500 uM; one replicate
Summary of the method: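 For every switch-domain sequence, the fluorescence ratio is the mean of per-cluster values, each being summed target-cycle Cy3 intensity over summed buffer-cycle Cy3 intensity. Clusters outside 100-1000 RFU were excluded. On a modified Illumina MiSeq flow-cell, the Cy3-labelled switching-strand clusters were annealed to 100 nM quencher-labelled ATP aptamer, imaged in selection buffer and then after 15 min with 500 uM ATP at 22 °C. Five such cycles were run, with NaOH stripping and re-annealing between them.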
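Note: ATP exposure 15 min at 22 °C before imaging.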

GGTGGTAGCG
switch fluorescence ratio: 1.01

TAACATTGGC
switch fluorescence ratio: 0.938

CGATTCAGTT
switch fluorescence ratio: 1.01

TATTCCGGTT
switch fluorescence ratio: 0.96

TTTGATTAGA
switch fluorescence ratio: 1.02

ATGATTTTCT
switch fluorescence ratio: 0.989

CATCGGAATA
switch fluorescence ratio: 1.89

GTCTCGTCAG
switch fluorescence ratio: 0.995

ATCACCCCGG
switch fluorescence ratio: 1.18

ATGGTGAAA
switch fluorescence ratio: 0.991

CTGGATTAGG
switch fluorescence ratio: 1

TCCGTGACAC
switch fluorescence ratio: 4.46

TGGGCTAGAG
switch fluorescence ratio: 1.03

TGGGGGCGCA
switch fluorescence ratio: 0.954

ATAATTGAAC
switch fluorescence ratio: 1.26

CTTTTAACTA
switch fluorescence ratio: 1.05

TATTCGATGC
switch fluorescence ratio: 1.14

ATGATGAGAT
switch fluorescence ratio: 0.974

CCGCTTGCTA
switch fluorescence ratio: 2.53

AGACTGTGAA
switch fluorescence ratio: 1.03

AAGTCTAGTG
switch fluorescence ratio: 0.984

ATCGTTGGTG
switch fluorescence ratio: 0.923

TATTTGTA
switch fluorescence ratio: 1.03

AGGAATAGTC
switch fluorescence ratio: 1.1

TTGAAACTAC
switch fluorescence ratio: 1.17

GCTTAAAAAG
switch fluorescence ratio: 1.02

GCTAAGTTGT
switch fluorescence ratio: 0.955

CGCATCCAGG
switch fluorescence ratio: 6.89

TGGAAAGAGG
switch fluorescence ratio: 1.04

ATTGCCGGTA
switch fluorescence ratio: 1.02

TTACATCCCC
switch fluorescence ratio: 1.21

GAGTCGTTGC
switch fluorescence ratio: 0.99

GGTCACGTTA
switch fluorescence ratio: 1.02

CCATTCCCCG
switch fluorescence ratio: 1.97

CAATGGCCTT
switch fluorescence ratio: 1.04

ACGCCCACAA
switch fluorescence ratio: 1.29

GCCATATAG
switch fluorescence ratio: 1.03

TCGGTTAGAG
switch fluorescence ratio: 1.02

AAGTTCATAA
switch fluorescence ratio: 1

GCCATAGGGA
switch fluorescence ratio: 0.992

ATGAACATAT
switch fluorescence ratio: 0.996

AGCCTTGGTT
switch fluorescence ratio: 0.989

TCTGATAGTC
switch fluorescence ratio: 1.03

TTTAAACTCT
switch fluorescence ratio: 0.985

TTAGAGGCA
switch fluorescence ratio: 0.98

CAGGCGGTAC
switch fluorescence ratio: 3.74

CATTGTGAA
switch fluorescence ratio: 1.02

CCCCTCAACA
switch fluorescence ratio: 1.11

CGACATTGCT
switch fluorescence ratio: 0.975

TTGACGTTTG
switch fluorescence ratio: 1.02

GAATCAAGAA
switch fluorescence ratio: 0.989

GCTGCCCCCC
switch fluorescence ratio: 1.57

ATTTGTCGGG
switch fluorescence ratio: 0.961

TTCCAAGTG
switch fluorescence ratio: 1.04

TTATCGTATC
switch fluorescence ratio: 1

GTTGGGAGAG
switch fluorescence ratio: 0.974

GCTCCACTC
switch fluorescence ratio: 1.57

ATCCTGAAGG
switch fluorescence ratio: 1.07

TGACAGTAAT
switch fluorescence ratio: 1.08

GACGCAATCA
switch fluorescence ratio: 2.45

ATTTACTTTA
switch fluorescence ratio: 1.07

CCCAGAGAGA
switch fluorescence ratio: 1.02

ACAGCGGAG
switch fluorescence ratio: 1.03

TATTTGGCAA
switch fluorescence ratio: 2.36

GACACGCGGT
switch fluorescence ratio: 1.01

AACTATTCTC
switch fluorescence ratio: 0.969

TTATGCGATG
switch fluorescence ratio: 0.959

AGTCCGCCCA
switch fluorescence ratio: 1.41

TATTGTGTTG
switch fluorescence ratio: 0.993

GGGTACTCAA
switch fluorescence ratio: 1.01

GAGCGCCCAA
switch fluorescence ratio: 1.01

TTGTAGTCGC
switch fluorescence ratio: 1.01

AGGCAAAATT
switch fluorescence ratio: 1.73

ATGAGATT
switch fluorescence ratio: 1.03

TTACTAGATT
switch fluorescence ratio: 1.05

ACACATGTCA
switch fluorescence ratio: 1.02

AACTTTTTTC
switch fluorescence ratio: 1.05

GCGACGGGTC
switch fluorescence ratio: 1.07

ATAAACTTAG
switch fluorescence ratio: 1.05

CGCGAAGTAC
switch fluorescence ratio: 2.58

ACCCTTATGA
switch fluorescence ratio: 1.02

TACGAGTAGG
switch fluorescence ratio: 1.01

GGTTTTTAT
switch fluorescence ratio: 1.02

CTACCCGTTT
switch fluorescence ratio: 0.949

CGGTCGGCCG
switch fluorescence ratio: 0.977
